These results are taken from paper PMC8440562, “MAD2L2 dimerization and TRIP13 control shieldin activity in DNA repair” (Nature Communications, 2021).

By UniProt entry, the sequences of proteins in these tests, tags left out. Where a name states a change or a piece, a line headed by the entry shows the natural chain unless it says otherwise. Chains listed by the source or under a name are the forms on record and can include a tag or linker.
UniProt Q9UI95: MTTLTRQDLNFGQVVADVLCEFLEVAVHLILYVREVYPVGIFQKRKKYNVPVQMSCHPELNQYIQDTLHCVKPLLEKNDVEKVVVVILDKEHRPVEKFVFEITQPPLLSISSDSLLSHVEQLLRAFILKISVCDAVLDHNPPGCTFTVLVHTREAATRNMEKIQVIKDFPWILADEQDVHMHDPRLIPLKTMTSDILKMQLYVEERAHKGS
MBP-tagged MAD2L2 (1xMut) (Q9UI95, form named): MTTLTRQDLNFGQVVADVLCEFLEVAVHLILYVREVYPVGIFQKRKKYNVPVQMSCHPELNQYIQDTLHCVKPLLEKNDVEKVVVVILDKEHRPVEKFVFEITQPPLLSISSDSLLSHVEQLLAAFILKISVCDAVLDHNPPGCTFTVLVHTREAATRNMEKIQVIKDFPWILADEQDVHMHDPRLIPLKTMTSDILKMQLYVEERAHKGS

These are yes or no findings as the source states them, for the method shown. For some of these results: Binding seen in cells or lysates may run through a third protein. Some binding calls cover weakened binding; strength is not graded here. For some of these results: Tags and fused reporters may be left off the sequences shown.

The target of assay [1] is Flag-MAD2L2^K44A/R124A/A135D (UniProt Q9UI95). Description: co-IP; 293T co-transfected with Flag-MAD2L2 (WT or mutant), V5-SHLD2 and GFP-SHLD3; anti-Flag M2 magnetic beads overnight at 4 C; lysis in 50 mM Tris-HCl pH 7.4, 150 mM NaCl, 1 mM EDTA, 1% Triton X-100; immunoblot.
The target of assay [2] is Flag-MAD2L2 (full-length wild-type MAD2L2, shRNA-resistant, single Flag-tag) (UniProt Q9UI95). Described as above.
Assay [3] deals with Flag-MAD2L2^R124A (UniProt Q9UI95). The assay is described as above.
Assay [4] deals with MBP-tagged MAD2L2 in complex with SHLD3 (human) (UniProt Q9UI95+Q6ZNX1). Description: pull-down; purified proteins mixed at 6 uM in 25 mM Tris pH 8, 0.3 M NaCl, 10% glycerol, 10 mM MgCl2, 0.5 mM TCEP, 0.01% Triton-X, 3 mM ATP; glutathione agarose or amylose beads; MAD2L2 in complex with full-length SHLD3; Coomassie SDS-PAGE; both purified.
In assay [5] the target is SHLD3-MAD2L2 complex (WT) (human) (UniProt Q9UI95+Q6ZNX1). Put plainly: SEC; purified SHLD3-SHLD2^1-95-MAD2L2 complex (WT or 1xMut); Superdex-200; fractions on Coomassie-stained SDS-PAGE; both purified. (In gel filtration, larger molecules generally elute earlier.)
For assay [6], the target named is SHLD3-MAD2L2 complex (1xMut) (human) (UniProt Q9UI95+Q6ZNX1). The assay is described as above.
Assay [7] addresses MBP-tagged MAD2L2 (1xMut) (human) (UniProt Q9UI95). Description: pull-down; purified proteins mixed at 6 uM in 25 mM Tris pH 8, 0.3 M NaCl, 10% glycerol, 10 mM MgCl2, 0.5 mM TCEP, 0.01% Triton-X, 3 mM ATP; glutathione agarose or amylose beads; MAD2L2 in complex with full-length SHLD3; Coomassie SDS-PAGE; both purified.

B1: V5-SHLD2 (protein, UniProt Q86V20 1-835)
chain: MSGGSQVHIFWGAPIAPLKITVSEDTASLMSVADPWKKIQLLYSQHSLYLKDEKQHKNLENYKVPESIGSPDLSGHFLANCMNRHVHVKDDFVRSVSETQNIESQKIHSSRLSDITSSNMQICGFKSTVPHFTEEEKYQKLLSENKIRDEQPKHQPDICGKNFNTNLFQLGHKCAAVLDLVCSTEKINIGPEVVQRECVPTEYHEIQNQCLGLFSSNAVDKSRSEAAVRKVSDLKISTDTEFLSIITSSQVAFLAQKKDKRRSPVNKGNVNMETEPKASYGEIRIPEENSIQLDGFTEAYESGQNQAYSLELFSPVCPKTENSRIHINSDKGLEEHTGSQELFSSEDELPPNEIRIELCSSGILCSQLNTFHKSAIKRSCTSEDKVGQSEALSRVLQVAKKMKLISNGGDSAVEMDRRNVSEFKSIKKTSLIKNCDSKSQKYNCLVMVLSPCHVKEINIKFGPNSGSKVPLATVTVIDQSETKKKVFLWRTAAFWAFTVFLGDIILLTDVVIHEDQWIGETVLQSTFSSQLLNLGSYSSIQPEEYSSVVSEVVLQDLLAYVSSKHSYLRDLPPRQPQRVNSIDFVELEHLQPDVLVHAVLRVVDFTILTEAVYSYRGQKQKKVMLTVEQAQDQHYALVLWGPGAAWYPQLQRKKGVVLIKAQISELAFPITASQKIALNAHSSLKSIFSSLPNIVYTGCAKCGLELETDENRIYKQCFSCLPFTMKKIYYRPALMTAIDGRHDVCIRVESKLIEKILLNISADCLNRVIVPSSEITYGMVVADLFHSLLAVSAEPCVLKIQSLFVLDENSYPLQQDFSLLDFYPDIVKHGANARL
For B1, the figures for the binding entry in assay [1], in assay [2] and in assay [3] were “no binding”, “binds” and “binds weakly”, respectively.

B2: His6-EGFP-TRIP13^E253Q (enzyme, human, UniProt Q15645 1-432, looked up)
chain: MDEAVGDLKQALPCVAESPTVHVEVHQRGSSTAKKEDINLSVRKLLNRHNIVFGDYTWTEFDEPFLTRNVQSVSIIDTELKVKDSQPIDLSACTVALHIFQLNEDGPSSENLEEETENIIAANHWVLPAAEFHGLWDSLVYDVEVKSHLLDYVMTTLLFSDKNVNSNLITWNRVVLLHGPPGTGKTSLCKALAQKLTIRLSSRYRYGQLIEINSHSLFSKWFSESGKLVTKMFQKIQDLIDDKDALVFVLIDQVESLTAARNACRAGTEPSDAIRVVNAVLTQIDQIKRHSNVVILTTSNITEKIDVAFVDRADIKQYIGPPSAAAIFKIYLSCLEELMKCQIIYPRQQLLTLRELEMIGFIENNVSKLSLLLNDISRKSEGLSGRVLRKLPFLAHALYVQAPTVTIEGFLQALSLAVDKQFEERKKLAAYI
notes: TRIP13, human, with E253Q; printed mass of GFP-TRIP13 75.5 kDa; source: insect cells (Hi5, baculovirus, biGBac), purified
As to B2, in assay [4], the binding result was “no binding (tested: 6 uM)”.

B3: SHLD2^1-95 (domain or fragment, UniProt Q86V20 1-95)
chain: MSGGSQVHIFWGAPIAPLKITVSEDTASLMSVADPWKKIQLLYSQHSLYLKDEKQHKNLENYKVPESIGSPDLSGHFLANCMNRHVHVKDDFVRS
Turning to B3, the binding entry in assay [5] and in assay [6] was “binds” in each case.

B4: GFP-SHLD3 (protein, UniProt Q6ZNX1 1-250)
chain: MTTEVILHYRPCESDPTQLPKIAEKAIQDFPTRPLSRFIPWFPYDGSKLPLRPKRSPPVISEEAAEDVKQYLTISEHDAKSHSYDCTVDLLEFQPSLKKQHLTWSHTLKEQTNSGNLGKQSEKGKQHKRRSWSISLPSNNCTKNVSPLSKKLQDSLKALNLHSLYRARWTIEHTICNSQTLEDIWTKLNQIIRHNELPSCNATIQRHLGQIWVFCDIMYCEYVGSLLKGRLALTGKINLFVHKYGVIFSM
Take B4: the binding entry in assay [1], in assay [2] and in assay [3] was “binds” throughout.

B5: SHLD3 (full-length, recombinant) (protein, UniProt Q6ZNX1 1-250)
chain: MTTEVILHYRPCESDPTQLPKIAEKAIQDFPTRPLSRFIPWFPYDGSKLPLRPKRSPPVISEEAAEDVKQYLTISEHDAKSHSYDCTVDLLEFQPSLKKQHLTWSHTLKEQTNSGNLGKQSEKGKQHKRRSWSISLPSNNCTKNVSPLSKKLQDSLKALNLHSLYRARWTIEHTICNSQTLEDIWTKLNQIIRHNELPSCNATIQRHLGQIWVFCDIMYCEYVGSLLKGRLALTGKINLFVHKYGVIFSM
With B5, in assay [7], the binding result was “binds”.
